# Laboratory results from the supplement of paper PMC12217912.
# The other results are listed elsewhere or left out. The full chains were built here from the parent and the listed change. Values near 0.05 are background.
# B1: TEV protease; numbered along this chain (parent)
# chain: MGESLFKGPRDYNPISSSICHLTNESDGHTTSLYGIGFGPFIITNKHLFRRNNGTLVVQSLHGVFKVKDTTTLQQHLVDGRDMIIIRMPKDFPPFPQKLKFREPQREERICLVTTNFQTKSMSSMVSDTSCTFPSGDGIFWKHWIQTKDGQCGSPLVSTRDGFIVGIHSASNFTNTNNYFTSVPKNFMELLTNQEAQQWVSGWRLNADSVLWGGHKVFMVKPEEPFQPVKEATQL
# Variants of: B1
# Test: raw area under fraction-flipped curve 0-4 h after induction (AUC4h, not background-subtracted), DNA-recorder readout of cleavage of the substrate (dimensionless); higher = more cleavage of the substrate by the protease variant
# Conditions: temperature: 34 °C; time window: 0-4 h after rhamnose induction
# Procedure: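 In vivo DNA recorder in E. coli TOP10(DE3) ΔrhaA at 34 °C. Each TEVp single-site mutant (parent TEVp 0) is paired with a single-site variant of the 7-mer TEVs (canonical ENLYFQ|S). The substrate sits between flexible linkers in a Bxb1-sfGFP-TEVs-SsrA fusion, so cleavage stabilises Bxb1 and speeds flipping of a recombination array, read by NGS. The value is the raw area under the fraction-flipped curve over 0-4 h after rhamnose induction (AUC4h), with ≥20 reads per time point. It is not background-subtracted; inactive controls average about 0.047.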
# 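Note: Bxb1 expression induced with 0.2% (w/v) L-rhamnose at OD600 near 0.5, cultures sampled hourly, flipped fraction per protease–substrate barcode pair counted by paired-end Illumina sequencing.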
Variant,area with substrate ENLYFAS,area with substrate ENLYFCS,area with substrate ENLYFDS,area with substrate ENLYFES,area with substrate ENLYFFS,area with substrate ENLYFHS,area with substrate ENLYFIS,area with substrate ENLYFKS,area with substrate ENLYFLS,area with substrate ENLYFMS,area with substrate ENLYFNS,area with substrate ENLYFPS,area with substrate ENLYFSS,area with substrate ENLYFTS,area with substrate ENLYFWS,area with substrate ENLYFYS,area with substrate ENLYFGS,area with substrate ENLYFRS,area with substrate ENLYFVS
R87S,0.0667,0.0566,0.0504,0.0673,0.0928,0.0566,0.0585,0.0687,0.0631,0.0588,0.0603,0.0566,0.0591,0.0612,0.0521,0.0618,,,
R87C,0.0585,,,,0.0819,0.0451,0.0476,0.0638,,0.0463,0.0657,0.0643,0.0422,0.0501,0.0528,,0.0551,,
K98D,0.0632,0.0625,,0.0674,0.0714,0.0443,0.065,0.0533,0.069,0.0766,0.063,,0.0658,0.0526,0.064,0.065,,,
F92I,0.0548,,,0.0621,0.0596,,,0.0559,,0.0596,,0.0577,,0.0668,,,,0.0689,
R106Y,0.0638,0.0592,,0.0712,,0.0632,0.06,,0.0681,0.0612,0.0716,0.0685,0.0691,0.0541,0.0528,0.0561,0.0648,0.0622,
R106M,0.0616,0.0595,0.0621,,0.0783,,0.0605,,,0.0653,0.0708,,0.0719,0.0568,0.062,,,0.0669,
I84D,0.0523,,0.0356,0.0482,0.0541,,0.0411,0.0624,,0.0583,0.0489,0.0276,,0.0566,,0.042,0.0485,0.0393,0.0494
I84T,0.0582,0.0527,,0.0474,,,0.06,,,,,0.0558,0.0593,,0.0723,0.0647,,,
L99F,0.08,,0.0537,0.048,0.058,,0.0407,0.0608,0.0726,0.0524,,0.0614,,,0.0403,0.0528,0.0502,,
Q74A,0.062,0.0601,0.0492,0.0401,0.0645,,0.0578,,0.0533,0.0711,0.0596,0.0624,0.062,0.0572,0.0544,,0.0589,0.051,0.0603
Q74M,0.0512,,0.0654,0.0692,0.0684,0.0466,0.0592,,,0.0621,,,,0.0451,0.0572,,,,
Q74Y,0.0497,,0.058,0.0673,,0.0651,0.0655,0.0638,,,0.052,0.0675,,0.0672,,0.0574,,0.0562,
Q74K,0.0526,,,0.0656,0.0685,0.0626,0.0561,,,0.0589,0.0204,,,0.0649,0.0444,,,,0.0603
E107R,0.0528,0.0504,,0.0705,0.0731,0.0606,0.0591,0.0856,0.0567,0.0598,0.0636,0.0633,0.0569,,0.0505,0.0629,,0.054,
Q118K,0.0637,,,0.0597,0.0477,,,,0.0746,,0.0567,0.0668,,0.0597,0.0616,,,0.0714,0.0705
Q118I,0.0602,,0.0542,0.0706,0.0748,,0.0627,0.0654,,,0.0634,0.0534,,,0.0619,,,0.0545,0.128
Q118P,0.0745,,,,0.0675,0.052,0.0499,0.0525,0.0475,0.0635,0.0845,0.0586,0.0661,,0.0479,0.0533,,0.0641,0.0449
S127C,0.0511,0.0558,0.0687,0.066,0.0768,0.0585,0.0598,,0.0638,0.0612,0.0625,0.0542,0.0568,0.0505,0.0591,,0.0448,,0.0671
S127Q,0.0627,,0.0595,0.0842,0.0745,0.0702,0.0664,0.058,,,,0.0626,0.0644,0.0542,0.116,,0.0343,,0.0706
Q75I,0.0653,,0.0676,0.0748,0.0707,,0.0669,0.0786,0.0666,0.0463,,0.0568,0.0541,,,0.0594,,0.065,
S124H,0.0701,,0.077,0.0651,0.0664,,0.0573,,0.0045,0.0641,,0.0519,,0.0537,0.0523,,,0.0631,
P89Q,0.0481,0.0501,0.0454,0.0541,0.0598,0.0657,0.0465,0.0553,0.0579,0.0557,0.0584,0.0258,0.0684,0.056,0.0738,0.0542,,0.0583,0.0559
P89M,0.0523,0.0491,,0.0615,0.071,,0.0512,,0.0421,0.0431,,,,0.0453,0.0448,,,0.0459,
L73N,0.0592,,,,,,0.0438,,,0.0576,0.0595,0.0604,,0.0472,,,,0.0663,0.0602
M122R,0.0612,0.0596,,,0.0576,,0.0583,0.0547,0.0463,0.0741,,0.0664,,,,,,0.0779,
K120S,0.0579,0.0576,0.0631,0.0548,0.0684,0.0626,0.0573,,0.056,0.0646,0.0515,0.0586,,0.0628,0.0655,0.0557,,0.0574,
T119V,0.0573,,,,,,0.05,0.0625,0.0597,0.0635,0.067,0.0687,,0.0594,,0.0506,,,
T119D,0.0606,,,0.0503,,0.0747,,0.0664,,0.0632,,0.0651,,0.0519,0.0663,,,,0.0637
L77C,0.0877,0.055,0.0415,,0.0625,0.0584,0.0575,0.0583,,0.0646,0.0654,0.0635,,0.0754,0.0633,,,,0.051
